# From ChEMBL document CHEMBL4888484, “Replenishing the malaria drug discovery pipeline: Screening and hit evaluation of the MMV Hit Generation Library 1 (HGL1) against asexual blood stage Plasmodium falciparum ,using a nano luciferase reporter read-out” (2022)
# The whole screen tested about 150,000 compounds, of which about 540 (0.36%) showed an effect of 50% or more. Some of the results follow.
# Tested on: Plasmodium falciparum
# Experiment: Primary screen in NF54 nanoGlo assay, in single point, at 2uM, 72h; a lower Z score goes with more inhibition
# Format: functional, Erythrocyte
# Conditions: timepoint 72 hour
SMILES,% Inhibition [%],Z score
N#Cc1cnc2c(F)cc(F)cc2c1NCC1(O)CCOCC1,3,-0.69
O=C(Nc1ccc(Cl)c(N2CCCS2(=O)=O)c1)NC1CCOCC1,-13,1.52
CCc1nccn1C[C@H](C)N1CCN(Cc2cccs2)CC1,-8,1.39
Cc1ccc(Cl)c(C(=O)N2CCc3[nH]c(-c4ccccc4)nc3C2)c1,-3,0.31
C[C@@H](O)CNC(=O)NCC(C)(C)c1ccncc1,-10,1.9
COc1ccc(CNC(C)(C)CO)cc1Cl,-19,1.7
CC(C)CC(=O)N1CCCn2nc(-c3ccc(C(F)(F)F)cc3)cc2C1,-17,1.87
CC(C)(C)n1cnc(-c2nc([C@@H]3CCCCO3)no2)n1,-25,3.13
Cc1nn(C)c(OC[C@H]2CCCCO2)c1C(=O)NCc1noc2c1CCCC2,-6,0.48
CCn1c(CNc2ccc(Br)cc2)nc2cc(S(=O)(=O)N3CCCCC3)ccc21,-7,1.31
O=C1CC2(CCN(c3nc(-c4ccccc4)cs3)CC2)CN1,-5,0.63
C=CCC[C@@H](CN1CCCOCC1)Oc1nccc(C)n1,-15,2.49
Nc1ncnc2cc(C(=O)N3CC4(CC4)C3)ccc12,-8,1.56
CC1CCCCC1C(=O)Nc1[nH]nnc1C(=O)NC1CC1 (stereo not given),-6,0.87
CN1CCc2[nH]nc(C(=O)NC[C@H]3CCc4ccccc4O3)c2C1,-2,0.32
CCOc1ccc(CNCCC(=O)O)cc1Cl,-2,0.27
COC[C@H](NC(=O)C1CCCC1)C(N)=O,-2,0.35
Cc1cc(C)c(C(=O)NS(=O)(=O)c2c(C)nn(C)c2C)o1,6,-0.88
CCCCN1CCN(C(=O)c2ccc3c(c2)nc2n3CCN(Cc3ccccc3)C2=O)CC1,-9,1.15
CC(C)CN1CCC(NC(=O)N2CCC[C@H](C)C2)CC1,-6,0.76
Cc1ccccc1OC1CN(C(=O)C(C)(C)N2CCOCC2)C1,-5,0.47
CC1C(C(F)(F)F)OCCN1c1nnc(-c2ccon2)s1 (stereo not given),-12,1.47

SMILES,% Inhibition [%],Z score
CC(=O)c1cccc(NS(=O)(=O)c2ccc(S(=O)(=O)N3CCCCC3)cc2)c1O,-7,0.68
CC1CCN(S(=O)(=O)N2CCN(Cc3ccco3)CC2)CC1,-3,0.46
CC1CN(CCC2CCCCO2)S(=O)(=O)C1 (stereo not given),-9,1.67
COc1cc(NC2CCN(C(=O)NCc3cncn3C)CC2)cc(OC)c1,-2,0.42
CCC(CC)CS(=O)(=O)N1CCC[C@H](CNS(N)(=O)=O)C1,-10,1.74
CCOC(=O)c1ccc(N2CCC(C)(C)S(=O)(=O)CC2)nc1,0,-0.06
Cc1noc2ncc(C(=O)N3C[C@H](C)OC(C)(C)C3)cc12,36,-1.2
O=C(NCc1nc2c(s1)COCC2)N[C@H]1CC12CCCCC2,-3,0.54
CN(C)Cc1cccc(-c2nc([C@H]3CCOC3)no2)c1,-14,2.03
COc1cc(C(=O)N2CCOCC2C2CCCC2=O)ccc1F (stereo not given),-1,0.19
CC(C)Oc1ccc([C@H]2CC(=O)Nc3nc(N4CCOCC4)sc32)cc1,-13,1.71
Cc1cccc(O[C@H]2CCN(C(=O)Cn3ncccc3=O)C2)n1,-8,1.54
Cn1ncc(Cl)c(Oc2ccc(C(C)(C)C)cc2)c1=O,-1,0.18
CC(C)N1CCN(C(=O)c2nnc(N3CCCCC3)c3ccccc23)CC1,2,-0.19
CCc1nnc(-c2c(C)c(S(=O)(=O)Nc3ccc(OC)cc3C)c(C)n2C)o1,4,-0.55
O=C(Nc1cc(-c2ccccc2)ns1)[C@H]1CCn2cncc2C1,-13,1.33
O=C1CCC[C@H](CC(=O)N(CCC(F)(F)F)c2ccccc2)N1,-3,0.61
O=c1c2cc(-c3ccc4c(c3)OCO4)nn2ccn1Cc1ccc2c(c1)OCO2,6,-0.93
COC[C@@H]1C[C@H](OC)CN1c1ncc(F)cn1,-8,0.94
CC(c1ccc(S(C)(=O)=O)cc1)N1CCN(C)C(c2nccn2C)C1 (stereo not given),-15,2.27
O=S(=O)(c1ccc(-c2ccno2)o1)N1CCN(c2ccccc2)CC1,10,-1.82
CC(C)(C)C(=O)N[C@@]1(C(F)(F)F)NC(=O)N(Cc2ccccc2Cl)C1=O,-1,0.17

SMILES,% Inhibition [%],Z score
Cc1ccc(Cn2cc([C@@H](CCc3ccccc3)CC(=O)NCCN3CCCC3)c3ccccc32)cc1,-10,1.33
CCN(Cc1noc(C2CCC2)n1)C(=O)NC1CCN(C(=O)C(C)C)CC1,-12,1.71
O=C(Nc1ccccn1)c1c(-c2ccccc2)c(-c2ccccc2)n[nH]c1=O,3,-0.49
CCC(CC)NC(=O)CCC1CCCCC1,-2,0.3
CS(=O)(=O)N(CCN1CCOCC1)[C@H]1CCN(C(=O)NCCc2ccccc2)C1,-2,0.28
CCO[C@@H](C)c1nc(CN(CC)c2cccc(CO)c2)cs1,-17,1.47
Cc1nonc1CC(=O)N1CC[C@](C)(O)[C@@H](O)C1,-12,1.17
Cc1cnc(NC[C@H]2CCCS2(=O)=O)nc1,-3,0.4
O=C1C[C@H]2CC[C@@H](CN1)N2C(=O)CCc1c[nH]c2ccccc12,2,-0.19
Cc1ccn(CCCN2C(=O)c3ccccc3C2=O)c(=O)c1C#N,25,-3.41
Cc1cc(OC2CCN(C(=O)c3cccc(N(C)C)c3)CC2)cc(=O)n1C,-2,0.32
CCn1cc(S(=O)(=O)N2CCC3(CCC(=O)N3Cc3ccc(F)cc3)CC2)cn1,6,-0.85
O=C(c1nccc2ccccc12)N1CC[C@H](OCc2ccccc2)C1,-2,0.35
Cc1ncc(-c2ccc(S(=O)(=O)NC3CCCCC3)s2)o1,-5,0.54
CCOC(=O)C1CCC(CN(Cc2ccc(OC)cc2)S(=O)(=O)c2ccc(F)c(C(=O)Nc3cc(Cl)ccc3OC)c2)CC1 (stereo not given),-5,0.64
COCCNC(=O)c1ccc(Cl)c(N)c1,-4,0.77
O=C(N[C@H]1CC[C@H](n2cnnc2)CC1)c1ccc(-c2ccccc2)[nH]1,-11,1.39
CS(=O)(=O)[C@H]1CCCCN(C(=O)c2cc(C#N)ccn2)C1,-7,1.05
O=c1[nH]ncn1C1CCN(Cc2csc3ccccc23)CC1,-8,1.38
O=S(=O)(c1ccccc1F)N1CCN(c2ccc(C3CC3)nn2)CC1,12,-1.57
COc1ccc(Cl)cc1NC(=O)N1CCc2c(c(=O)c3cc(C)cc(C)c3n2C)C1,-3,0.41
Cc1c[nH]c(C(=O)N(C)[C@@H](C)Cc2cnccn2)n1,-10,1.85

SMILES,% Inhibition [%],Z score
O=C(NC[C@H]1[C@H](c2ccccc2)C1(F)F)c1coc(C2CCC2)n1,-1,0.21
Cc1cccc(CN(C(=O)C(=O)N2CCCC2)C(C)C)c1,-2,0.41
c1cc2c(cc1OCc1csc([C@@H]3CCCO3)n1)CCC2,-8,1.46
CN(Cc1ccccc1)C(=O)C[C@@H]1CCNC[C@@H]1Cc1cc(-c2ccccc2)on1,31,-3.51
CN1CCOC(C(=O)N2CCC(OCCCc3ccccc3)C2)C1 (stereo not given),-6,0.63
O=C(Cn1cccnc1=O)N[C@H]1CCc2ccccc21,-16,3.1
CC(C)c1cccc(/N=C(\NCc2ccncc2)NC(=O)c2ccccc2)c1,-10,1.76
Cc1ccccc1N1CCN(C(=O)[C@H]2CC(=O)N(c3cnn(C)c3)C2)CC1,-2,0.2
CCOC1(C)CCN(C[C@H](O)c2ccc(C(F)(F)F)cc2)CC1,20,-3.55
COC(=O)c1c(NCC(O)COCC2CC2)ncnc1NCC(O)COCC1CC1 (stereo not given),-4,0.42
O=C(Nc1cc(Br)cnc1OCC(F)(F)F)c1ccc2c(c1)OCCO2,-4,0.69
O=C(NCc1ccc(F)cc1)N(Cc1cccs1)C1CCOCC1,-1,0.12
CCC(c1cccs1)N1C(=O)[C@H]2CN(S(=O)(=O)c3ccc(C)cc3C)C[C@H]2C1=O (stereo not given in full),-3,0.34
c1cc(-c2noc(C3CC3C3CC3)n2)ns1 (stereo not given),-10,1.45
CCc1noc(C(C)NC2CCN(C(C)=O)CC2CC)n1 (stereo not given),-3,0.44
CN1C(=O)CCC12CCN(Cc1cnc(-c3cccc4ccccc34)nc1)CC2,-12,1.18
CCc1nc2cc(-c3noc(Cc4ccc(Cl)cc4)n3)ccc2o1,49,-4.76
CC(C)(CCO)CNCc1ccc(F)cn1,-18,2.41
CC(C)Cc1c[nH]c(C(=O)NC[C@H]2CCCCS2(=O)=O)c1,-12,2.13
